The text below walks through data of the supplement of paper PMC11417369.

± gives the standard deviation of the averaged measurements. The list shows a part of the results.

This experiment deals with PfAP2-G AP2 domain (GST-tagged). Kind of experiment: gcPBM binding intensity (ln(normalized median fluorescence intensity)); higher = stronger DNA binding. The method in brief:
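Using an Agilent 4 × 180k array, primer-extended double-stranded 36-bp intergenic genomic probes and negative controls were exposed for 1 h to GST-fused P. falciparum DNA-binding domains expressed in E. coli. Binding was carried out in 1× PBS with 1% milk, 0.2 mg/ml BSA, 0.5% salmon testes DNA and 0.03% Triton X-100, and protein was detected with Alexa488 anti-GST antibody and a 488 nm scan. Binding intensity is the highest Masliner-normalised natural-log median intensity across replicate spots of either probe orientation.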
For “TCTATAAAGGAATATACACACATATATAAATATGTA [CACACA_site6332]”, the “gcPBM binding intensity (ln)” value was found to be 9.85 ± 0.12.

On to “AAAAACAGAAATGTAACACACAAAAATTCTATTTAT [CACACA_site4026]”, for which the “gcPBM binding intensity (ln)” value was 9.86 ± 0.057.

Turning to “TTTTGTTATAAATAATGTACATATTTATTTAAAATT [XGTACX_site6610]”, the “gcPBM binding intensity (ln)” value came out at 11.2 ± 0.79.

Regarding “AAAATCATTCCAAAGACATGCATTTTGCAAATAAAA [TGCATGCA_site461]”, the “gcPBM binding intensity (ln)” value came out at 9.69 ± 0.071.

As for “TATATTATATACCATTGTACATATAATATAGGTTCT [XGTACX_site7047]”, the “gcPBM binding intensity (ln)” value came to 10.8 ± 0.59.

Turning to “GAAACGATTTAATACACACACGTATTATAGATATAT [CACACA_site6666]”, the “gcPBM binding intensity (ln)” value was 10.12 ± 0.078.

For the sequence “TTTTTTTTTTTTTTGACACACATAATAAAATACAAA [CACACA_site3080]”, the “gcPBM binding intensity (ln)” value was 10.2 ± 0.66.

As to “AATAAGCATATACAAACATGCATACATATAAATAAA [TGCATGCA_site338]”, the “gcPBM binding intensity (ln)” value worked out at 9.815 ± 0.064.

In the case of “AGCCACGTGGTATATACACACATAATCAAATAAAAT [CACACA_site9364]”, the “gcPBM binding intensity (ln)” value was 10.2 ± 0.2.

Turning to “TATATATTTGTAACGGGTACGTAGGTGTATATTCCA [XGTACX_site6028]”, the “gcPBM binding intensity (ln)” value is 11.1 ± 0.53.

For the sequence “AAAAAAAAAAAATACACACACACATATATATATATA [CACACA_site731]”, the “gcPBM binding intensity (ln)” value was found to be 10.3 ± 0.9.

In the case of “TTTTTTTTTTTTTATTGTACTAAATTATAGAGGGGA [XGTACX_site2609]”, the “gcPBM binding intensity (ln)” value is 10.9 ± 0.95.

As for “AAATATTTTAACGAGAGTACATAATAACAATTTATG [XGTACX_site3865]”, the “gcPBM binding intensity (ln)” value turned out to be 11.3 ± 0.7.

On to “GAAAGAATAAAATTTACACACATATATAAATACATA [CACACA_site5273]”, for which the “gcPBM binding intensity (ln)” value worked out at 9.74 ± 0.11.

As for “TGAATAAATAGACACACACACATATATAAATATGTA [CACACA_site6159]”, the “gcPBM binding intensity (ln)” value came out at 9.98 ± 0.24.

As to “ATAAAACAACACACTTGTACTAATTTTTTTTTTTTT [XGTACX_site8377]”, the “gcPBM binding intensity (ln)” value is 11.1 ± 0.61.

“TATTGACAAAAAAAAAAAAGGTAAAAAAGAAAGAAA [GTGCAC_negctrl_site418]”: the “gcPBM binding intensity (ln)” value was found to be 10 ± 0.22.

Regarding “TTTTGTTTATGTGTGCATTATATTATATTTTTTATT [TGCATGCA_negctrl_site146]”, the “gcPBM binding intensity (ln)” value turned out to be 10.1 ± 0.18.

In the case of “TATAAATAAATATACACACACACATATAAATATGTA [CACACA_site6504]”, the “gcPBM binding intensity (ln)” value is 9.93 ± 0.028.

In the case of “TGTAAGAAATTGAGCGCACACATACATCTGTGGGAT [CACACA_site4945]”, the “gcPBM binding intensity (ln)” value is 10.43 ± 0.042.

In the case of “TTATAATTTTAATGTGCACACAATTAAAATATTATA [CACACA_site5172]”, the “gcPBM binding intensity (ln)” value turned out to be 10.6 ± 0.41.

Consider “AAGTGGTTATAATCAACACACGTGGAATGTACTTTA [CACACA_site3700]”, for which the “gcPBM binding intensity (ln)” value came to 10.9 ± 0.75.

Take “AAGAAACCATAATATGCATGCACATATTAATAAATA [TGCATGCA_site693]”: the “gcPBM binding intensity (ln)” value was 9.89 ± 0.18.

Turning to “AAAGAAAGGAATACGACACACAAAAAAAAAATATAT [CACACA_site1934]”, the “gcPBM binding intensity (ln)” value is 10.2 ± 0.18.

As for “TAGTTGCACATGTATACACACAAAAAATATTTTATG [CACACA_site475]”, the “gcPBM binding intensity (ln)” value turned out to be 10.6 ± 0.33.

Turning to “AATAAATATAGGTACACACACAAATATGTACATATC [CACACA_site6976]”, the “gcPBM binding intensity (ln)” value amounted to 11.7 ± 0.92.

With “CCTCAATATTCACATACACACAATATCATCGAAGTA [CACACA_site1676]”, the “gcPBM binding intensity (ln)” value is 10.1 ± 0.23.

For the sequence “CTACATACAAGAATTAAACACACACTAATTATAAAT [CACACA_site8986]”, the “gcPBM binding intensity (ln)” value amounted to 10 ± 0.028.

For “AATATAATTATATGTGGTACAGAAATAATATAAAAT [XGTACX_site2366]”, the “gcPBM binding intensity (ln)” value amounted to 11.4 ± 0.7.

For TTATAAAAGACAAAAGTGCATATATACATATGTATA, the “gcPBM binding intensity (ln)” value is 9.98 ± 0.16.

For “TTCTTTTTTTTTCTGGGTACATATATTCCAATCACT [XGTACX_site4770]”, the “gcPBM binding intensity (ln)” value was found to be 11.3 ± 0.88.

As to “CCATCTTTTTTACGATGTACAAGTATAAGGTATACG [XGTACX_site2697]”, the “gcPBM binding intensity (ln)” value came to 10.9 ± 0.53.

On to “TATATATAATAAGAAGGTACACGTAAGTAATAATTT [XGTACX_site934]”, for which the “gcPBM binding intensity (ln)” value is 11 ± 0.54.

For the sequence “TTTATATGTTTTGTATTTTTAATAAATATTTTATTA [TGCATGCA_negctrl_site20]”, the “gcPBM binding intensity (ln)” value worked out at 9.84 ± 0.099.

Turning to “TATAACTTTTATAGGTGTACCCAATATTATATATAG [XGTACX_site7673]”, the “gcPBM binding intensity (ln)” value is 11.4 ± 0.84.

In the case of “TGTAAAACCTCCTACACACACCAATTAACTATTCTA [CACACA_site7074]”, the “gcPBM binding intensity (ln)” value was 9.875 ± 0.021.

Consider “TATATATATATTATTAGTACTTATTTTTTTTCATAT [XGTACX_site1279]”, for which the “gcPBM binding intensity (ln)” value worked out at 11.2 ± 0.58.

“TTATATTATAGACACACACACAAAAAAAAAAAAAAA [CACACA_site3816]”: the “gcPBM binding intensity (ln)” value is 9.97 ± 0.3.

As to “AAATAAATAAATTAACGTACATAATAACATTAATAT [XGTACX_site8567]”, the “gcPBM binding intensity (ln)” value worked out at 11.2 ± 0.79.

Consider “ATATATATATATGTATGTACACATATTTTTTAACTT [XGTACX_site431]”, for which the “gcPBM binding intensity (ln)” value was found to be 11.5 ± 0.78.

“ATGTATATATATTTGTGTACATATTTAGGAAATAAA [XGTACX_site2904]”: the “gcPBM binding intensity (ln)” value was found to be 11.6 ± 1.

As for “AATTAAATTTATATGAATGTCAATTATATTGTTATA [XGTACX_negctrl_site261]”, the “gcPBM binding intensity (ln)” value turned out to be 9.64 ± 0.16.

Take “ATTATCCATGCATTTACACACACACTAAAAAAAATT [CACACA_site7848]”: the “gcPBM binding intensity (ln)” value amounted to 10.3 ± 0.34.

For the sequence “TTATAAAATGGGCAAACACACACAAAAAAAAGATAT [CACACA_site8476]”, the “gcPBM binding intensity (ln)” value amounted to 10.4 ± 0.21.
